Assay results: PubChem BioAssay AID1508623 (National Center for Advancing Translational Sciences (NCATS), 2021)
Screen size: about 48,000 compounds; about 450 (0.94%) were called active. Inconclusive results (about 19%) are left out. Calls follow the shape of the dose curve; as a rule, active = well fitted inhibition curve with a large enough effect; inconclusive = small, poorly fitted or top-dose-only effect; inactive = no such curve, though single readings can be large or run the other way. This is one part of the list.

Experiment: Primary qHTS for Identification of Small Molecule Inhibitors of Huntingtin Promoter Activity; also: nearly all actives have a fitted effect of over 50% in size
Conditions: HEK293 HTT promoter firefly luciferase reporter (activity 0% = vehicle and -100% = no light), 24 h; series mostly up to 57.5 µM; activity change, negative = inhibition: at the top concentration
Summary of the method: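 Quantitative HTS used concentration series of up to 57.5 uM final on HEK293 luciferase reporter cells, 24 h at 37 degrees C. Readout was Dual-Glo firefly luminescence.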
Potency is read from the fitted curve at half-maximal effect.

Row | SMILES | activity change, negative = inhibition | Potency
1 | CCN(CC)C(=O)c1sc2c(c1C)c(=O)n(-c1ccc(C)c(C)c1)c(=O)n2Cc1cc(=O)n2ccccc2n1 | inactive: -4.57% | –
2 | Cc1ccc2sc(N(Cc3cccnc3)C(=O)CCS(=O)(=O)c3ccccc3)nc2c1C | inactive: -11.1% | –
3 | O=C(CNC(=O)c1ccccc1)OCc1cc(=O)n2nc(C3CCCCC3)sc2n1 | inactive: -4.31% | –
4 | CCN(CC)C(=O)c1sc2c(c1C)c(=O)n(Cc1ccccc1)c(=O)n2Cc1ccccc1C | inactive: -9.75% | –
5 | Clc1ccc(CN2CCN(c3ncnc4sc5c(c34)CCCC5)CC2)cc1Cl | inactive: -16% | –
6 | COc1ccc(CNC(=O)Cc2c(C(=O)O)c(C)cn2C)cc1 | inactive: -10.3% | –
7 | Cc1ncc([N+](=O)[O-])n1CC(C)O (centres undefined) | inactive: -4.22% | –
8 | O=C(NCc1ccc(F)cc1Cl)c1cc(=O)[nH]c2ccc(S(=O)(=O)N3CCCCC3)cc12 | inactive: -14.1% | –
9 | COc1ccc(-c2nc3scc(CCNS(=O)(=O)c4ccc5c(c4)OCCO5)n3n2)cc1OC | inactive: 8.8% | –
10 | Cc1c(-c2ccccc2)c(=O)oc2ccc(OC(=O)N3CCOCC3)cc12 | inactive: -37.2% | –
11 | CCOc1ccc(C(=O)Nc2c(C(=O)Nc3ccccc3OC)oc3ccccc23)cc1OCC | inactive: -1.36% | –
12 | Cc1cc(C)cc(OCCSc2nc3ccc(NC(=O)c4cccs4)cc3s2)c1 | inactive: -18.9% | –
13 | C/C=C(/C(=C/C)c1ccc(O)cc1)c1ccc(O)cc1 | inactive: -13.2% | –
14 | CCOc1ccc(NC(=O)CSC2=Nc3ccccc3C3=NC(CC(=O)NCc4cccs4)C(=O)N23)cc1 (centres undefined) | inactive: -19% | –
15 | COc1cc(-c2cc(OC)c3c(C)oc(C)c3c(=O)c2)ccc1OC(=O)c1ccc(C)cc1 | inactive: 1.7% | –
16 | O=C(CSc1n[nH]c(-c2ccccc2Cl)n1)NCCCc1ccccc1 | inactive: 0.371% | –
17 | Cc1ccc(-c2cn3c(n2)sc2cc(C(=O)NCCCN4CCCCCC4)ccc23)cc1 | inactive: 3.13% | –
18 | CC(CCc1ccccc1)NC(=O)Cn1c(=O)nc(-c2ccccc2)c2cc(Cl)ccc21 (centres undefined) | inactive: 8.28% | –
19 | CCc1ccc2oc(C(=O)N(Cc3ccc(N(C)C)cc3)Cc3ccco3)c(C)c2c1 | inactive: -27.1% | –
20 | O=C1c2ccccc2-c2onc3c(N4CCN(C5CCCCC5)CC4)cc(NCCO)c1c23 | inactive: -6.95% | –

Row | SMILES | activity change, negative = inhibition | Potency
21 | O=C(O)c1ccccc1OP(=O)(O)O | inactive: 9.24% | –
22 | CC(=O)c1cccc(NC(=O)C2CCN(c3ncnc4c3nc3n4CCCCC3)CC2)c1 | inactive: -22.2% | –
23 | CCn1ccc2cc(S(=O)(=O)N3CCCN(C(=O)Nc4ccccc4F)CC3)ccc21 | inactive: -20.3% | –
24 | O=C(COC(=O)c1cc(-c2cccs2)nc2ccccc12)c1ccc(F)cc1 | inactive: -8.67% [at 11.5 µM] | –
25 | O=C(CSc1nnc(-c2ccc3c(c2)OCO3)o1)Oc1ccccc1 | inactive: -15.9% | –
26 | O=C(Cn1c(=O)n(Cc2nc(-c3ccccc3)no2)c(=O)c2cc3c(cc21)OCO3)Nc1ccccc1 | inactive: -5.75% | –
27 | CCOc1ccc(-n2c(SCC(=O)Nc3cc(C)ccc3C)nc3c([nH]c4ccccc43)c2=O)cc1 | inactive: -6.75% | –
28 | CCC(C)n1c(=O)c2sccc2n2c(CCCC(=O)N3CCN(c4ccccc4)CC3)nnc12 (centres undefined) | inactive: -20.7% | –
29 | COc1cccc(Cc2nc3ccccc3nc2SCC(=O)Nc2cccc(C)c2)c1 | inactive: -2.64% | –
30 | Cc1ccc(Cn2cc(S(=O)(=O)c3cccc(C)c3)c(=O)c3cc(F)c(N4CCOCC4)cc32)cc1 | inactive: -29.7% | –
31 | COc1ccc(CNC(=O)c2sc3nc4n(c(=O)c3c2C)CCCC4)cc1 | inactive: 37.1% | –
32 | O=C(Cc1ccccc1)Nc1sc2c(c1C(=O)Nc1ccccc1Cl)CCCCC2 | inactive: -13.3% | –
33 | COc1ccc2cc([C@H](C)C(=O)O)ccc2c1 | inactive | –
34 | CC(C)c1ccc(NC(=O)CSC2=Nc3ccccc3C3=NC(CCC(=O)NC4CCCCC4)C(=O)N23)cc1 (centres undefined) | inactive: -6.53% | –
35 | Cc1cccc(Nc2ncnc3onc(-c4ccc(Cl)cc4)c23)c1C | inactive: -18.2% | –
36 | Cc1ccc2oc3c(c(=O)c2c1)C(c1ccc(O)cc1)N(CCCN(C)C)C3=O (centres undefined) | inactive: -12.7% | –
37 | Cc1ccc(-n2c(=O)c3cccnc3n2CC(=O)NCc2ccc(Cl)cc2)cc1 | inactive: -24.8% | –
38 | Cc1cc(F)ccc1NC(=O)C(c1ccccc1)N1Cc2ccccc2C1=O (centres undefined) | inactive: -13.1% | –
39 | COC(=O)c1ccc([C@@H]2Nc3c(OC)ccc(C)c3[C@@H]3C=CC[C@@H]32)cc1 | inactive: -25.5% | –
40 | Nc1c(C(=O)Nc2ccc(F)cc2)sc2nc(-c3cccs3)cc(C(F)(F)F)c12 | inactive: -27.2% | –

Row | SMILES | activity change, negative = inhibition | Potency
41 | COc1ccc(C(=O)Nc2cccc(C(=O)OCc3cc(=O)n4nc(C5CC5)sc4n3)c2)cc1 | inactive: -30.3% | –
42 | CC1N=C2c3ccccc3N=C(SCC(=O)NCCc3ccc(Cl)cc3)N2C1=O (centres undefined) | inactive: -6.15% | –
43 | O=C(CCS(=O)(=O)c1cc2c(cc1Cl)NC(=O)CO2)NCc1ccc(Cl)cc1 | inactive: -16.3% | –
44 | O=c1cc(-c2ccccc2)c2ccc3c(c2o1)CN(Cc1cccc(Cl)c1)CO3 | inactive: -22.6% | –
45 | CCOc1ccc(CC(=O)Nc2cccc(-c3nc4cccnc4s3)c2C)cc1 | inactive: -10.9% | –
46 | Cc1ccccc1NC(=O)Cn1c(=O)n(CCCC(=O)NCc2ccc3c(c2)OCO3)c(=O)c2ccccc21 | inactive: -2.66% | –
47 | COc1ccc2[nH]cc(CCN=C(NC(=O)c3ccccc3F)Nc3nc(C)cc(C)n3)c2c1 | inactive: -28.6% | –
48 | COc1ccc(Cl)cc1NC(=O)c1c(NCc2ccc(C)o2)sc2c1CCC(C)C2 (centres undefined) | inactive: -19.5% | –
49 | C=C(C)CSc1nc2sc3c(c2c(=O)n1Cc1ccccc1)CC(C)(CC)OC3 (centres undefined) | inactive: -9.73% | –
50 | Cc1c(C(=O)Nc2ccccc2Br)oc2ccc(S(=O)(=O)N3CCCCCC3)cc12 | inactive: -11.6% | –
51 | CCC(C)NC(=O)CN1C(=O)c2cccnc2Sc2ccccc21 (centres undefined) | inactive: 4.73% | –
52 | Cc1ccc(CN2C(=O)C(O)(c3c(C)[nH]c4ccccc34)c3ccccc32)cc1 (centres undefined) | inactive: -15.3% | –
53 | COc1ccc(NC(=O)C2CCC(CNS(=O)(=O)c3cccc4nsnc34)CC2)cc1OC (centres undefined) | inactive: -19.5% [at 11.5 µM] | –
54 | COc1ccc(C(=O)n2nc(N)c3cc4ccc(C)cc4nc32)cc1OC | inactive: 16% | –
55 | COC(=O)c1cc2oc(C)cc2n1Cc1ccccc1Cl | inactive: -19% | –
56 | Cc1nc2cc(-c3ccccc3)nn2c(C)c1CCC(=O)N1CCN(c2ccc(F)cc2)CC1 | – | active: 2 µM
57 | CC1CCN(C(=O)c2c(NC(=O)c3ccccc3Cl)sc3c2CCC(C(C)(C)C)C3)CC1 (centres undefined) | inactive: -11.7% | –
58 | COc1cc(C2CC(=O)N(Cc3cccc(F)c3)c3ccccc3S2)cc(OC)c1OC (centres undefined) | – | active: 20 µM
59 | Cc1cc2nc(-c3ccc(OCc4ccccc4C)cc3)cc(C(F)(F)F)n2n1 | inactive: 1.02% | –
